Measured values reported in US20150031733A1, “TETRAZOLINONE COMPOUNDS AND ITS USE” (SUMITOMO CHEMICAL COMPANY, LIMITED, priority 2012, published 2015).

Columns and labels:
[1] = system: barley net blotch fungi (Pyrenophora teres); assay: Barley net blotch control test, foliar spray before inoculation; format: in vivo; conditions: 50 ppm, foliar spray 2 days before inoculation, barley (cv; Mikamo Golden)
[2] = system: grapes downy mildew fungi; assay: Grapes downy mildew control test, foliar spray before inoculation; conditions: 200 ppm, grapes (Seeding of Chardonnay)
[3] = system: barley scald fungi (Rhynchosporium secalis); assay: Barley scald control test, foliar spray before inoculation; format: in vivo; conditions: 500 ppm, foliar spray 2 days before inoculation, barley (cv; Mikamo Golden)
[4] = system: tomato late blight fungi (Phytophthora infestans); format: in vivo; conditions: 500 ppm, foliar spray, tomato (cv; Patio)
[5] = system: soybean rust fungi (Phakopsora pachyrhizi); assay: Soybean rust control test, foliar spray after inoculation; format: in vivo; conditions: 200 ppm, foliar spray one day after inoculation, soybean (cv; Kurosengoku)

In the case of “4-((1-(4,5-dihydro-4-methyl-5-oxo-1H-tetrazole-1-yl)-2-phenyl-2-yl]methyloxy}-4-phenylthiazole [control compound]”, the “lesion area compared to the lesion area in untreated plants” value (shortened to “lesion area compared to the lesion area”) [1] is reported as no less than 70%.
With `Cc1ccc(-c2csc(OCc3ccccc3-n3nnn(C)c3=O)n2)cc1` [Compound T012, 2-{[1-(4,5-dihydro-4-methyl-5-oxo-1H-tetrazole-1-yl)phenyl-2-yl]methyloxy}-4-(4-methylphenyl)thiazole] the “lesion area compared to the lesion area” value [2] was no more than 30%.
In the case of `Cn1nnn(-c2ccccc2COc2nc(C(C)(C)C)cs2)c1=O` [Compound T025, 2-{[1-(4,5-dihydro-4-methyl-5-oxo-1H-tetrazole-1-yl)phenyl-2-yl]methyloxy}-4-(1,1-dimethylethyl)thiazole], the “lesion area compared to the lesion area” value [3] is reported as no more than 10%.
With `Cc1cccc(-n2nnn(C)c2=O)c1COc1nc(C(C)(C)C)cs1` [Compound T047, 2-{[1-(4,5-dihydro-4-methyl-5-oxo-1H-tetrazole-1-yl)-3-methylphenyl-2-yl]methyloxy}-4-(1,1-dimethylethyl)thiazole] the “lesion area compared to the lesion area” value [4] was no more than 30% and the “lesion area compared to the lesion area” value [5] was no more than 30%.
